# Results as given in article PMC10726135.
# The list shows a part of the results. At the low end of the ranking the order means little. Measured with an extract: partners may take part in the binding.
# Biological target: T1, HNF4alpha8 (COS-7 nuclear extract) (UniProt P41235-5)
# T1 sequence: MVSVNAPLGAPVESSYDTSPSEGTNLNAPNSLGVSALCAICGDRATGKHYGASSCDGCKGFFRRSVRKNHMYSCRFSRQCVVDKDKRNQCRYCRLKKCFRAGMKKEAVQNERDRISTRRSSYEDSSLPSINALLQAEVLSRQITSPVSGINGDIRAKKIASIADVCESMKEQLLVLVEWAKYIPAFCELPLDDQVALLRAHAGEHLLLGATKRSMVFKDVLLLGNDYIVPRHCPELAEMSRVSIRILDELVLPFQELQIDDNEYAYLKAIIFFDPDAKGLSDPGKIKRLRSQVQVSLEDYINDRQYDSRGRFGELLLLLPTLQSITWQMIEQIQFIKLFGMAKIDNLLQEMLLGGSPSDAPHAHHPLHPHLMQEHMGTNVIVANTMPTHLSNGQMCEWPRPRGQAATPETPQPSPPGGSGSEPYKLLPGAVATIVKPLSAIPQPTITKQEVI
# Assay: protein-binding microarray
# Conditions: COS-7 nuclear extract on double-stranded Agilent 4x180k PBM; binding buffer, salt, pH and temperature not given; high values mean tight binding; double strand, one strand shown; sequences stand for … in …GCCTAGGGAGATTAGAGTATCGGTCGA
row,Sequence,binding signal (log2 normalized intensity)
1,AACTTTGGAAATGCAAACACCTACATTCAA,-1.35
2,AAGCGATCTTTGCATTCCCAAAATGATTCC,0.296
3,GGTTTGGGGTCTAGAACAGCTCCTTTGAAG,-1.2
4,TGAGGAGCCAAGTTTTGCAACATACTGAAA,-1.42
5,CTTATCACATTCTGCTCTTGAACCAGAGAA,-0.602
6,CAGTCCCTATAGCCTCACTTGCTGATAAGG,-1.32
7,TGTGTGCTGCGCGGGGCCTCCCAGTGGTAT,-1.26
8,CAACTCTAAGGGGGAAAGTCCACGTGAGAG,3.33
9,TGAGTGGAATATGAGGTCAGGGTTCATCTG,4.46
10,AATAAATGTGTTTCATCAGTCCAATTCACA,1.62
11,GATATTTCCCCTTTGACTTAGGATCAGTAG,1.23
12,CTTGTGTAATCCTGCAACAGCCCCATGAGA,2.25
13,ATCAAATTAACACAGCTCTAGAGGGCTGCT,-1.38
14,GGATAAAAGGGGAAAAGGTCAAATACCAAA,2.96
15,GCAAAGCTGCTATGAGCTATGATTGCGCCA,-1.4
16,ATATCCCTGAGAGGCCAGTTTGACCTTTGC,8.82
17,AATGCACTGGTGACTTTAAGTTGACTCCAA,-0.366
18,CACTCCTCCTCCTTCCCTCCTGCTCACTTA,0.327
19,ATACCAGAAATTCCATGATTTTCTGGAGGA,-0.82
20,CCTCAGTGGCTCACAAATGGAGTTTGGTTT,2.53
21,TACATACCCAAGTTCCCTCTCAGGAATGTG,-0.0285
22,TGAACCAATCTTGAGATAAGTACACAAAAG,-1.39
23,GGAATGTGCTTGGACCTGCTCTGTTTTCTT,1.91
24,CTAACAAAGCTCAGGGCAAAGACTCAAATC,-1.28
25,GGTAGATAAGGGAGTTTCAGAGGACTGCCC,0.263

row,Sequence,binding signal (log2 normalized intensity)
1,CAGCTTTGACGCCACCTGAAGGCAGGTGTG,-1.28
2,ACCTATTCTCTCTGAGGGCTACTATCTGAA,-1.27
3,TCTTAGAGGCACCCATCCCTTTGCAATAAA,1.37
4,TCTCCTAACTATGGTCACGCGGCCAAAATG,-1.43
5,ATGCCAGCTAAGATCAGTAGCTAGGAGACA,-1.34
6,CAAAAATATCTTTGTCTCAGGAACTTTGTT,1.45
7,CATTGCAAATTGGATGTTGAACCTCTGTCC,3.74
8,GGAGGGGAAGCTGGGCAGGCGCCGACTGCC,-1.37
9,AAAACATTGTACCTTCTACCGTACCTAGGA,0.924
10,GGGGGTCAGAAGTCCAACATTAGTATCACT,4.52
11,CAAGTGACTGATAAGGCTAAGTGGAGGATT,-1.28
12,ATCTCGGGGCTGGCATGTCTCTGGTCAGGG,1.14
13,AACACGGGCGAAAAAGACGCGGTCTCAGTT,-1.32
14,GCGAAGCCGGCGGCGGAATGCTTGTCTAGT,-1.21
15,TATCTTACCTCCTTCTCCCCCATGCCCCTG,5.34
16,AGGGAAATGCAAACATTTCTGGAATGTCCA,0.801
17,AGAATGCAGAAACAAATACAGACACACCTA,-1.37
18,AGAGAAGATTCCAGAGGGAGGGAGGGTGGA,-1.24
19,ACCTGGAACTGAAAGAGACCTTTGACATCA,5.23
20,CATCTGATAGCTAAACCAGATACGTGGGTC,0.709
21,ATCTATTTTCTATTTCCACTGAGGTCAAGA,2.57
22,TGTGGTTAAGACTCAAAGTTCAGTCGAATT,2.77
23,CGGGCAGCCTGTGGCCAGGCTGCGTTTCAA,-1.29
24,ACAGGTGCTCTTTATCAGCACCAAGAACAA,-0.837
25,TCCTTGACTTCAAAGGCATTTCTGGACTTG,3.31

row,Sequence,binding signal (log2 normalized intensity)
1,CAGGGAGCCCTTATATCCACATGGGTCCAA,3.03
2,GCTGACCTTTGGTCTAAACCTACTTAGATC,4.73
3,ATCATTGCCTCTGGTATGCAGAAAAGCAAG,-0.965
4,CTTCAAGATGGCATCACTCTTGCCACAGAA,-1.33
5,TCACAAGCATGGGCCTCCTCTTCTTTGGGC,0.594
6,TGAGACACGTGTGCCATGCCAAAGAAGCAA,-1.3
7,ATTGTTTACTGGTGAACATAAATCGCAAAT,-0.386
8,GAGCCTGGACATTTGCCACCAATGCCTCTA,-1.33
9,TACCGGCAGAGGCTGCAGAGGTTTCGCAAG,-1.3
10,AACATAATATTTAGCTTTCAGTGACTGCTC,-0.352
11,TGTCCAGCACACCTTTTTTTCATGCAAATT,0.452
12,TTTCTGCCTGTGATGTCCTTCCCTCAGCAA,-1.46
13,TAGTTGACCTTTGAGAACCTCCCATCAGCT,3.55
14,AACCCAGGGTCACAAGGATCCCATTCATGT,-1.3
15,GACTGACTTAACCCTTGCCTGGCATGGCCT,0.396
16,TGTTACCACCCAGACCAGTAACCTAAGTCA,-1.22
17,CAAAGTCCTGGAAGAAACCCATTTGTTAGT,0.761
18,CTGGGAAGATTAAGGAAGGAAGGTGCTTAT,-1.24
19,ACCTTTGTTCACAGTGACGTTCTGCCCCTT,4.31
20,GACCTCAGCCCTCAGGGGCCTTCAGATAAA,-0.943
21,GAAGCTTTCTGAGAAACTTCTTTGTGATGT,1.29
22,GTCCGCCCTTCCCCGCTCTCCCCGCCCCCT,6.27
23,CTGACCTACCTGACCTGGCATACTACAGAA,-1.34
